These results are taken from patent publication US20220017636A1 (Amgen, published 2022).

Common to all, as to assay: flow cytometry, peptide-loaded T2 cells;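 note: binding of single-chain Fv antibody constructs, raised in XenoMouse, to peptide-pulsed T2 cells measured by flow cytometry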
(In general: Flow cytometry measures light scatter and fluorescence of single cells or particles in a stream.)

In test [1] the target is T1, MAGEB2 peptide … (SEQ ID NO: 1) complexed with HLA-A*02:01 on the cell surface (human).
T1 construct: whole, on cells; also called pMAGE-HLA; MAGEB2 pMHC

For test [2], the target named is T2, STXBP5 peptide complexed with HLA-A*02:01 on T2 cells (human).
T2 construct: whole, on cells

Test [3] addresses T3, MB peptide complexed with HLA-A*02:01 on T2 cells (human).
T3 construct: whole, on cells

Test [4] has as its target T4, DPYSL4 peptide complexed with HLA-A*02:01 on T2 cells (human).
T4 construct: whole, on cells

In test [5] the target is T5, SLK peptide complexed with HLA-A*02:01 on T2 cells (human).
T5 construct: whole, on cells

The target of test [6] is T6, MYOF peptide complexed with HLA-A*02:01 on T2 cells (human).
T6 construct: whole, on cells

Test [7] deals with T7, KEA peptide complexed with HLA-A*02:01 on T2 cells (human).
T7 construct: whole, on cells

Test [8] has as its target T8, ADF peptide complexed with HLA-A*02:01 on T2 cells (human).
T8 construct: whole, on cells

The target in test [9] is T9, CNDP2 peptide complexed with HLA-A*02:01 on T2 cells (human).
T9 construct: whole, on cells; also called CNPD2

Test [10] has as its target T10, COX14 peptide complexed with HLA-A*02:01 on T2 cells (human).
T10 construct: whole, on cells

B1: 18181-H7 (scFv)
scFv: EVQLLESGPGLVKPSQTLSLTCTVSGDSISSNPYYWSWIRQHPGKGLEWIGYISYSGITNYNPSLKSRVTMSVDTSKNQFSLKLTSLTAADTAVYYCAREKMWFGVLNYYYGMDVWGQGTTVTVSSGGGGSGGGGSGGGGSELVMTQTPLSLPVTPGEPASIS[letters of about 80 residues not shown]FGQGTKVEIK
notes: scFv in bacterial lysate, detected with anti-Flag M2
On to B1, for which the Signal/background in [1] stood at 229; in test [2], 1; in test [3] it was 1; in test [4] it was 1; in test [5], 1; in test [6] it was 1. Besides, the Signal/background in test [7] is 1; in test [8], 1; in [9], 1; in test [10] it was 0.9.

B2: 18081-B6 (scFv)
scFv: EVQLLESGPMLVKPTQTLTLTCTFSGFSFTTHKMGVDWIRQPPGKALEWLALIYWNDDKRYSPSLQSRLTITKDTSKNQVVLTMTNMDPVDTATYYCAYRRYNWNYENWFDPWGQGTLVTVSSGGGGSGGGGSGGGGSELVMTQSPSSLSASVGDRVTIT[letters of about 80 residues not shown]FGPGTKLEIK
notes: as for B1
Consider B2, for which the Signal/background came out at 22 in test [1]; 1 in [2]; 1.1 in test [3]; 1 in test [4]; 1.1 in test [5]; 1 in test [6]. In addition, the Signal/background was determined as 1 in [7], 1.1 in test [8], 1 in test [9] and 1 in test [10].

B3: 18081-F9 (scFv)
scFv: EVQLLESGPMLVKPTQTLTLTCTFSGFSFTTHKMGVDWIRQPPGKALEWLALIYWNDDKRYSPSLQSRLTITKDTSKNQVVLTMTNMDPVDTATYYCAYRRYNWNYENWFDPWGQGTLVTVSSGGGGSGGGGSGGGGS[letters of about 100 residues not shown]FGPGTKVEIK
notes: as for B1
Take B3: the Signal/background in [1] is 36; in test [2], 1; in test [3], 1; in test [4] it was 1.2; in [5] it was 1.2; in [6] it was 1. In addition, the Signal/background amounted to 0.9 in test [7], 1 in test [8], 1 in [9] and 1 in [10].

B4: 18089-D8 (scFv)
scFv: EVQLLESGPMLVKPTQTLTLTCTFSGFSFTTHKMGVDWIRQPPGKALEWLALIYWNDDKRYSPSLQSRLTITKDTSKNQVVLTMTNMDPVDTATYYCAYRRYNWNYENWFDPWGQGTLVTVSSGGGGSGGGGSGGGGSELVMTQSPDSLSASVGDRVTIT[letters of about 80 residues not shown]FGQGTRLEIK
notes: as for B1
On to B4, for which the Signal/background in test [1] stood at 36; in test [2], 1; in test [3] it was 1; in test [4], 1.2; in test [5], 1.1; in test [6] it was 1.1. The Signal/background is 1 in [7], 1 in [8], 0.9 in test [9] and 1 in [10].
